These results are taken from PubChem BioAssay AID463173 (ICCB-Longwood Screening Facility, Harvard Medical School, 2010).

In all, about 52,000 compounds went through this assay and about 4,300 (8.3%) were called active. Rule as the data show it: active = survival mostly below about 52% (no sharp cut-off); inactive = mostly above about 56%. The list shows a part of the results.

This assay has as its system DeltatarO mutant. Description: growth inhibition of S. aureus wild type versus tarO mutant, primary screen, teichoic acid synthesis inhibitors, RN4220, OD600 (AID 463173). The note with it: OD600, 18 h, stronger effect = lower value, screened at 18.75 µg/mL (by protocol).
As to `O=C(Cn1ncc2c3ccccc3n(Cc3ccc(Cl)cc3)c2c1=O)N1CCCCCC1`, the survival was inactive: 84%.
As to `COc1ccc(Br)cc1CNC(=O)Cn1c(=O)c2cccn2c2ccc(F)cc21`, the survival was inactive: 64%.
Regarding `Cc1ccccc1Cn1cc(CCC(=O)NC(C)c2ccccc2)c2ccccc21` (centres undefined), the survival was inactive: 71%.
Regarding `Cc1cc(C)c2oc(-c3cccc(NC(=O)c4ccc(Br)o4)c3)nc2c1`, the survival is active: 34%.
Consider `CCC(C)c1ccc(OCC(=O)Nc2cccc(-c3nc4ncccc4o3)c2)cc1` (centres undefined), for which the survival is active: 19%.
The value for `CCOc1ccc(NC(=O)c2oc3ccccc3c2NC(=O)Cc2ccc(F)cc2)cc1` was inactive: 101%; that for `COC(=O)c1cc(NC(=O)c2oc(=O)c3ccccc3c2-c2ccccc2)cc(C(=O)OC)c1` was inactive: 68%.
The value for `Cc1ccc(NC(=O)CN2C(=O)CSc3ccc(S(=O)(=O)N4CCCC4)cc32)cc1F` was inactive: 87%; that for `COc1cc(OC)c(NC(=O)c2nnn(Cc3ccc(C)cc3)c2N)cc1Cl` was inactive: 60%.
For `Cc1ccc(NC(=O)c2c(NC(=O)c3ccco3)sc3c2CCC(C(C)(C)C)C3)c(C)c1` (centres undefined), the survival is inactive: 145%.
On to `CCc1ccc(NC(=O)c2cc(S(=O)(=O)NC3CCCC3)ccc2F)cc1`, for which the survival is inactive: 120%.
On to `COc1ccccc1CNC(=O)c1ccccc1NC(=O)c1nsc2ccccc12`, for which the survival was inactive: 81%.
Consider `CCOC(=O)c1[nH]c2ccccc2c1NC(=O)c1ccccc1OCC`, for which the survival is inactive: 68%.
`Cc1ccc(-n2nc3ccc(NC(=O)c4oc5ccccc5c4C)cc3n2)cc1`: the survival is active: 31%.
`O=C1COc2ccccc2N1Cc1c(F)cccc1Cl`: the survival is inactive: 79%.
The value for `O=C(Nc1ccc2c(c1)CCCN2C(=O)c1cccs1)c1cccc(C(F)(F)F)c1` was inactive: 102%; that for `Cc1ccc(S(=O)(=O)N(CC(=O)Nc2ccc(C(C)C)cc2)Cc2ccccc2)cc1` was inactive: 54%.
As for `CC(=O)N1c2ccc(S(=O)(=O)NCC3CCC(C(=O)NC(C)(C)C)CC3)cc2CC1C` (centres undefined), the survival is inactive: 92%.
As for `Cc1ccccc1NC(=O)CCC(=O)N1CCSc2ccccc21`, the figure is inactive: 72%; as for `O=C(NCC(c1cccs1)S(=O)(=O)c1cccs1)c1ccccc1F` (centres undefined), inactive: 101%; as for `Clc1ccccc1N1CCN(c2ncnc3c2c(-c2ccccc2)cn3-c2ccccc2)CC1`, inactive: 80%.
On to `CCN(CC)c1nn2c(=O)c(C(=O)NCc3ccc(OC)cc3OC)cnc2s1`, for which the survival was inactive: 75%.
Regarding `O=C(NCc1ccc(Cl)cc1)C(=O)NCC(c1cccs1)S(=O)(=O)c1ccc(Cl)cc1` (centres undefined), the survival was inactive: 85%.
The value for `CCCNC(=O)c1ccc2c(c1)N=C(C)c1c(C)ccc(C)c1S2` was inactive: 61%; that for `CCOc1ccc(CCNC(=O)C2CCN(c3ncnc4c3nc3n4CCCCC3)CC2)cc1` was inactive: 91%; that for `CCOC(=O)C1CCN(C(=O)c2cc3ccc4cccnc4c3[nH]2)CC1` was inactive: 69%.
The value for `CCN(C(=O)c1noc2c1COc1ccc(C)cc1-2)c1cccc(C)c1` was inactive: 54%.
As to `O=C(Nc1ccccc1F)c1nc(S(=O)(=O)Cc2ccccc2F)ncc1Cl`, the survival was active: -4%.
As for `Cc1nc2ccc(Br)cn2c1NC(C)(C)C`, the figure is inactive: 63%; as for `Clc1cccc(-n2ncc3c(NC4CCCCC4)ncnc32)c1`, inactive: 99%; as for `Cc1cccc(N2CCCC2=Nc2ccc(Br)cc2C#N)c1`, inactive: 90%.
Take `Cc1cccc(N2CCN(C(=O)c3cc(S(=O)(=O)N4CCC(C)CC4)cn3C)CC2)c1C`: the survival was inactive: 58%.
With `CC(C)(C)OC(=O)N1CCC(c2c(C(=O)NCCN3CCC(Cc4ccccc4)CC3)cnn2-c2cccc(Cl)c2)CC1`, the survival is inactive: 79%.
As for `O=C(Nc1cccc(Cl)c1Cl)c1cc(S(=O)(=O)N2CCCCC2)ccc1F`, the figure is inactive: 72%; as for `COc1ccc(CCNC(=O)C2CC(=O)N(CCc3ccccc3)C2)cc1OC` (centres undefined), inactive: 112%.
As for `Cc1ccc(C)c(Cn2c(=O)n(-c3ccc(Cl)cc3)c(=O)c3c4c(sc32)CCC4)c1`, the figure is inactive: 144%; as for `COCCCNC(=O)c1ccc(CSc2nc3cccnc3n2Cc2ccc(OC)cc2)cc1`, inactive: 107%; as for `Cc1cc(C)c(S(=O)(=O)Nc2ccc3oc4c(c3c2)CCCC4)cc1C`, inactive: 55%.
As for `COc1nc(C)c(/C=C/C(=O)N(C(=O)NC2CCCCC2)C2CCCCC2)c(OC)n1`, the figure is inactive: 58%; as for `CC(CNC(=O)CCn1c(=O)c2cccn2c2ccc(F)cc21)c1ccccc1` (centres undefined), active: 34%; as for `CCOC(=O)c1ccccc1NC(=O)CSc1c(C)cnc2c1c(=O)n(C)c(=O)n2C`, inactive: 80%.
Consider `NC(=O)CSc1nnc(CNc2ccc(Cl)cc2)n1Cc1ccccc1`, for which the survival was inactive: 96%.
The value for `Cc1nc2c(c(C)c1CCC(=O)N1CCN(c3ccccc3)CC1)c(=O)n(C)c(=O)n2C` was inactive: 106%.
As for `COc1ccc(C2C=C(c3ccccc3)Nc3nc(NS(=O)(=O)c4ccccc4)nn32)cc1` (centres undefined), the figure is active: 25%; as for `Cc1ccc(-c2cn3c(n2)sc2cc(C(=O)NCCC4=CCCCC4)ccc23)c(C)c1`, inactive: 88%.
In the case of `CCOc1ccc(S(=O)(=O)NCC(c2ccc(N(C)C)cc2)N2CCCC2)cc1` (centres undefined), the survival is inactive: 107%.
Turning to `O=C(COc1ccc(F)cc1)Nc1ccc2nc(SCC(=O)N3CCCC3)sc2c1`, the survival is inactive: 91%.
On to `CCOc1ccc(NC(=O)C2CCN(C(=O)Cc3ccccc3)CC2)cc1`, for which the survival was inactive: 75%.
Consider `COc1ccccc1N1CCN(C2C(=O)c3ccccc3N2C(C)=O)CC1` (centres undefined), for which the survival was inactive: 95%.
As for `CCOc1ccc(-c2nnc(SCC(=O)Nc3ccccc3C(F)(F)F)o2)cc1`, the survival is inactive: 62%.
The value for `Cc1ccc(N2C(=O)C(CC(=O)Nc3ccc(F)cc3)N(CCC3=CCCCC3)C2=O)cc1` (centres undefined) was active: 55%.
The value for `CCCCN1CC(c2nc3ccccc3n2CCCCOc2ccccc2C)CC1=O` (centres undefined) was active: 34%; that for `COc1ccc(OC)c(S(=O)(=O)NCCc2sc(-c3cccnc3)nc2C)c1` was inactive: 87%.
Turning to `CCCN(Cc1cccs1)C(=O)Nc1cc(C)ccc1OC`, the survival was inactive: 55%.
As for `O=C(c1ccc2c(c1)N(Cc1ccc(Cl)cc1)C(=O)c1ccccc1S2(=O)=O)N1CCCCCC1`, the figure is inactive: 64%.
As for `CCc1nn(CC(=O)Nc2ccc(C)c(F)c2)c(=O)c2cc3cc(C)ccc3n12`, the figure is inactive: 98%; as for `COc1ccc(OC)c(CNC(=O)C2CCN(S(=O)(=O)N3CCCCC3)CC2)c1`, inactive: 79%.
The value for `Cc1ccc(-c2onc(C)c2C)cc1S(=O)(=O)NCc1cccs1` was inactive: 91%.
In the case of `COc1ccccc1N1CCN(c2nc3ccc(C(=O)c4ccccc4)cc3n3c(C)nnc23)CC1`, the survival was active: 46%.
As for `CCC(C(=O)NC1CCCC1)N(C(=O)c1snc(C(N)=O)c1N)c1ccccc1` (centres undefined), the figure is inactive: 73%.
As for `Cc1ccc(NC(=O)c2nc(S(C)(=O)=O)ncc2N(Cc2ccco2)Cc2ccccc2F)c(C)c1`, the figure is active: 37%; as for `CCN(Cc1ccccc1)C(=O)CCS(=O)(=O)c1cc2c(cc1Cl)NC(=O)CO2`, inactive: 91%.
For the compound `Cc1nc2scc(C)n2c(=O)c1S(=O)(=O)Nc1cccc(O)c1`, the survival is inactive: 83%.
Consider `NCCC(=O)N1c2ccccc2Sc2ccc(Cl)cc21`, for which the survival was inactive: 87%.
The value for `CCOc1ccc(OCC)c(NC(=O)c2nnn(Cc3cc(Br)ccc3OC)c2N)c1` was inactive: 61%; that for `COCCCNC(=O)c1cn(CC(C)C)c(=O)c2c1c1ccccc1n2C` was inactive: 65%; that for `COc1cc(OC)c(NS(=O)(=O)c2cc3c(cc2C)NC(=O)CO3)cc1Cl` was inactive: 88%.
As for `CC(=O)c1ccc(N2CCN(C(=O)C3CCN(S(=O)(=O)c4ccc(Br)s4)CC3)CC2)cc1`, the figure is inactive: 94%.
In the case of `COCCn1c(CNC(=O)c2cccc(N(C)C)c2)nc2cccnc21`, the survival is inactive: 65%.
Consider `COc1ccc2oc(=O)c(-c3nc(-c4cc(OC)c(OC)c(OC)c4)no3)cc2c1`, for which the survival is inactive: 89%.
As for `O=C(CNS(=O)(=O)c1cccs1)N1CCN(c2ccccc2Cl)CC1`, the figure is active: 45%.
As for `O=C(Cn1cc(SCc2cccc(F)c2)c2ccccc21)N1CCCC1`, the survival was inactive: 56%.
On to `O=C(NC1CCCCCC1)c1ccc(Cl)c(S(=O)(=O)N2CCOCC2)c1`, for which the survival was inactive: 86%.
The value for `Cc1ccc(C(=O)Nc2ccc3nc(SCC(=O)N4CCc5ccccc54)sc3c2)cc1` was inactive: 88%; that for `Cc1ccc2c(CNCc3cccc(Cl)c3)c(C(=O)O)n(Cc3ccc(F)cc3Cl)c2c1` was inactive: 70%; that for `Cc1cc2oc(C(=O)Nc3sc4c(c3C(=O)NCc3ccco3)CCC4)cc(=O)c2cc1C` was active: 38%.
Turning to `CCOC(=O)c1ccc(CN(Cc2ccc(F)cc2)S(=O)(=O)c2ccc(F)cc2)cc1`, the survival is inactive: 87%.
The value for `O=C(Nc1ccc(C(F)(F)F)cc1)c1cc(S(=O)(=O)NC2CCCCCC2)ccc1F` was active: 25%.
Regarding `CCCOc1ccc(C2c3c(oc4ccccc4c3=O)C(=O)N2c2ccc(C)cn2)cc1OCC` (centres undefined), the survival was inactive: 73%.
Regarding `CCOC(=O)c1c(C)[nH]c(C)c1S(=O)(=O)N1CCC(C(=O)N2CCN(c3cccc(C)c3)C(C)C2)CC1` (centres undefined), the survival is inactive: 113%.
For `Cc1ccc(C)c(NC(=O)Nc2nnc(N(CC(C)C)CC(C)C)s2)c1`, the survival was inactive: 85%.
For the compound `Cc1ccc(CCNC(=O)c2ccc3c(=O)n(-c4ccc(C)cc4)c(=O)[nH]c3c2)cc1`, the survival was inactive: 82%.
Regarding `Cc1ccccc1S(=O)Cc1ccc(C(=O)NC2CCCCCC2)o1` (centres undefined), the survival is inactive: 80%.
In the case of `CCOc1cccc2sc(NC(=O)c3ccc(S(=O)(=O)N4CCCc5ccccc54)cc3)nc12`, the survival was inactive: 74%.
As for `Cc1ccc(C)c(NC(=O)C(CC(C)C)N2Cc3ccccc3C2=O)c1` (centres undefined), the figure is inactive: 134%; as for `Cc1cc(C)c2c(c1)c(C)cc1nnc(SCC(=O)c3ccccc3)n12`, inactive: 75%.
As for `O=C(CSc1nccn1Cc1ccc(F)cc1)NCc1ccco1`, the figure is inactive: 94%; as for `CCCN1Cc2cccc(C(=O)Nc3cc(Cl)ccc3C)c2C1=O`, inactive: 95%.
As for `CC(C)(C)c1ccc(C(=O)Nc2ccc(-c3nc4ccccc4o3)c(O)c2)cc1`, the survival was inactive: 69%.
